# Results published in the supplement of paper PMC11417369.
# The other results are listed elsewhere or left out.
# Tested on: PF3D7_0420300 AP2 domain 1 (GST-tagged)
# Experiment: gcPBM binding intensity (ln(normalized median fluorescence intensity)); higher = stronger DNA binding
# In short: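 Using an Agilent 4 × 180k array, primer-extended double-stranded 36-bp intergenic genomic probes and negative controls were exposed for 1 h to GST-fused P. falciparum DNA-binding domains expressed in E. coli. Binding was carried out in 1× PBS with 1% milk, 0.2 mg/ml BSA, 0.5% salmon testes DNA and 0.03% Triton X-100, and protein was detected with Alexa488 anti-GST antibody and a 488 nm scan. Binding intensity is the highest Masliner-normalised natural-log median intensity across replicate spots of either probe orientation.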
row,Sequence,gcPBM binding intensity (ln)
1,TTTATTAAATATATATGTACATATCAAAATGTATAA [XGTACX_site3181],9.05
2,GTTAAACATCTTCTGTGATATGTTAGAATATTATTT [CACACA_negctrl_site687],9.21
3,TTTTTTTTCTATTGAGCACACATATCACGATTAGTA [CACACA_site7992],9.23
4,TATTTCACAAACCTTACATGCGGTTTATTTATATAT [TGCATGCA_site123],9.46
5,TTTACACTTTTTTTTGTACACACTAAAAAGATTAAC [CACACA_site3933],9.22
6,TGTTGTTACCTATATACACACATATAAATATTATAG [CACACA_site7180],9.34
7,TTTTTCAGAAAAGAAACACACATATAAATATTTATA [CACACA_site7170],9.17
8,AAAAAAAAAAAAAAAACACACAAGGATCAGATAGAT [CACACA_site7743],9.8
9,AGGGCATATATATATGCACACATACATATATACATG [CACACA_site9282],9.37
10,AATATTATGATATTATGTACATATTAAAAGCACCAC [XGTACX_site6236],9.58
11,TGGTATATACGACACACACACATATGTATAAATATA [CACACA_site6561],9.97
12,TATTTTTAAAAGTTAACAGAAAAAATATAAATAAAT [GTGCAC_negctrl_site295],9.17
13,TACCATAATCAATGCACACATAACAAAATATTATTA [CACACA_site2722],9.48
14,TGTAATAAAATAATTAGTACACATATATGTATATTT [XGTACX_site5896],9.22
15,TTTTCCCTTTTTTCCGCACACAATAAAATAAATAAA [CACACA_site2807],9.4
16,ATATATATATAATGTTGTACGTTTTATTCTCCCATT [XGTACX_site8071],9.5
17,TTTATCATGAACAGAAGTACATTTATATCAATGTCT [XGTACX_site6470],9.1
18,ATATATATATATTTTACACACAATGGAGAAAAAAAT [CACACA_site644],9.61
19,TAAAAAAGAAAAAGAGCACACAAAAATATTTAACCT [CACACA_site8885],9.74
20,TATATATTTATATATTGTACACTCTTATGTAGTGTA [XGTACX_site210],8.95
21,TTACATATTTTCATTTGTACATATTCATTTTTTTTC [XGTACX_site6988],9.35
22,AAATAACCCACGTGCATGCACTTCAATAACTGAACT,9.59
23,ATGTCAGGGAAAAAAACACACAAGAGTATGATATGT [CACACA_site2180],9.53

row,Sequence,gcPBM binding intensity (ln)
1,ATTTTTATATTTAATACACACATAAAATCATACCAT [CACACA_site23],9.48
2,AAAAAAATAATATAATATTAAATCTTAGTTAATAAA [GTGCAC_negctrl_site658],8.95
3,AAAAAAAAAAAAAAAAAAACTAATATAATAAAAATA [TGCATGCA_negctrl_site150],9
4,TATGCATATACACAAGCACACATATATATATATATA [CACACA_site8266],9.19
5,TTTTTTTTTTTTTTTTCTTTTTTTTTTTTAAATAAG [XGTACX_negctrl_site418],8.58
6,TTTTTTTTTTTTTACACACCCAAATCACATACATAT [CACACA_site6089],9.29
7,AACATCTTATCATCATGTACGAAGCAGTTTTATAAG [XGTACX_site2490],9.17
8,TATAATAAATATACTGGTACACAAATATATATATTT [XGTACX_site7741],9.33
9,ATATTATATTTACATAGTACACTATATGTATATATA [XGTACX_site2101],9.25
10,TGTAATTTTTTACGTTGTACATATATTAACAATATA [XGTACX_site3991],9.2
11,ACATTGAATAAATAATGTACATATATAATATATATT [XGTACX_site95],9.17
12,AAATTAAATGTAAGCACACATAAATTATACGCATAT [CACACA_site3335],9.47
13,TTGCAGTATTTCGGAACACACAAACATAAATATGTA [CACACA_site5307],9.28
14,AAATATTATTCATTTTGTACGTATAATTTTTAATGA [XGTACX_site3509],9.18
15,GATCTTTCACATATATATATAAAGGATATTATGGTA [CACACA_negctrl_site522],9.18
16,TATAATAATCCACAAGCACACACACCCACATATATA [CACACA_site8343],9.93
17,AGTAGTCTGGAGAAAAGTACACAGTATCTGGTAGCT [XGTACX_site2544],9.14
18,ATTATATTATATTATACATGCATAATATTATATAAA [TGCATGCA_site647],9.17
19,TTATTACACAAATGGTGTACTTTTGAGGAACCAAAA [XGTACX_site4279],8.94
20,AATATATACATACATACATGCACATATATATATATA [TGCATGCA_site393],9.36
21,AAATAGTTGTTATGGGTGCAAACCACATATATATAA [GTGCAC_site9428],9.05
22,AGGCCTTTTAGTATTTCACACACGTAAATGTGTATA [CACACA_site8284],9.58
